From the supplement of paper PMC3334620
Over roughly 33,000 sequences, “E-score (-0.5 to 0.5)” has its median near -0.035; the highest 2% begin near 0.35. This is one part of the list.

What follows are sequences tested against T1, Pdr3 (UniProt P33200) (assay: PBM E-score (8-mer binding enrichment) (E-score (-0.5 to 0.5)); higher = stronger / more preferred TF binding; most listed sequences are background and not binding sites). Details: protein concentration: 200 nM; construct: GST-full length.
T1 sequence: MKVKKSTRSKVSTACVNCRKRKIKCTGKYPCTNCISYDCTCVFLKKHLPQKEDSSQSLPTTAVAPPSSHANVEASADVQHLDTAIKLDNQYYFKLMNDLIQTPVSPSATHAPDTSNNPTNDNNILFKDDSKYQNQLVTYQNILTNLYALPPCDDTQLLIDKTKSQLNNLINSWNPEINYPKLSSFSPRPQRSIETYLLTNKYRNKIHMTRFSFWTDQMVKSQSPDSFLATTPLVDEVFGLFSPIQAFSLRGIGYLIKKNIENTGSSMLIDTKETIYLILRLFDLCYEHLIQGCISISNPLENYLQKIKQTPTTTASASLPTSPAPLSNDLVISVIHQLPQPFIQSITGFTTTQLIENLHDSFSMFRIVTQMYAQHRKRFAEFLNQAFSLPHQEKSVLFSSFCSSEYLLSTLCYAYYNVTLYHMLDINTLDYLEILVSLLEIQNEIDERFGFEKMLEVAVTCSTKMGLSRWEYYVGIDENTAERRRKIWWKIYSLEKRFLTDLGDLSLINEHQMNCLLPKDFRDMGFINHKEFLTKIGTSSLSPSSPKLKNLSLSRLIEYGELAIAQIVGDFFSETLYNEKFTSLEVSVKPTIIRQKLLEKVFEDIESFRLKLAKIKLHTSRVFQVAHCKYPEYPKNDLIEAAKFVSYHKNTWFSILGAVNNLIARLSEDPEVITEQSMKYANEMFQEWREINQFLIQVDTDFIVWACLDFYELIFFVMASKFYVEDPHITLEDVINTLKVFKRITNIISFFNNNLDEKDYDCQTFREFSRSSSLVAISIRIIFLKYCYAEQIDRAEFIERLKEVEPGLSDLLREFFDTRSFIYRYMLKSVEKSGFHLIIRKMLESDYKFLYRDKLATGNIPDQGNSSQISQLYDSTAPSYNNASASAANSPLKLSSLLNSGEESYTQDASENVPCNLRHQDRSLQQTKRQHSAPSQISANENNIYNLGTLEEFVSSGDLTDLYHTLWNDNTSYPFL
Summary of the method: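 GST-tagged yeast TFs (full-length or DNA-binding domain) were made by PURExpress in vitro transcription/translation and applied at about 100-200 nM to universal all-10-mer Agilent arrays. The arrays were made double-stranded by primer extension, on fresh or once-stripped slides. Bound protein was detected with fluorescent anti-GST, and scans were normalised with masliner. Each ungapped eight-base word, pooled with its reverse complement, received an E-score (modified Wilcoxon-Mann-Whitney statistic) from the Universal PBM Analysis Suite.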

Sequence | PBM E-score
AGGCCATG | -0.167
GCAAAAAC | -0.138
CTCAAGAC | -0.108
ACCTATAG | -0.317
TCAGTAAA | -0.00839
CCTCATAC | -0.0938
AGTAACAC | 0.064
CTCGGGAA | 0.301
CTAGCGCA | -0.251
CCAGACTA | -0.118
TACATGTA | -0.0105
CCCCCCAC | -0.324
CCAATTAG | -0.0252
ATGGGACC | -0.0251
CAGGGAGC | -0.14
CATAACTA | -0.115
GAGGAGAA | -0.226
CGGGTACG | 0.145
CTTAGCCA | -0.107
CTCAGTGC | 0.0149
CAGAGCTA | -0.327
AAAAGATT | 0.0508
CGCACAAG | 0.0112
CAATACAA | 0.0666
GGTGCCTA | -0.147

Sequence | PBM E-score
CACATTTC | 0.136
TAATAGTA | 0.113
ATCGGAAG | 0.359
CCTAGGAG | -0.0519
GGGCGGAA | 0.414
AACGGACT | 0.0833
ACGGCACA | -0.0224
ACATCCAA | -0.0543
GTCCTCCA | -0.0693
GTTTATTA | 0.141
CCCTAAAA | -0.187
GTCGGCCA | -0.0997
ACCAAGCG | -0.0407
CCGATCAA | 0.13
GGATGAAC | 0.0959
GAAGCAGC | 0.0452
AGGTAGCC | -0.113
CATCGGCC | 0.202
CATATTGC | -0.113
ACAGCCTG | -0.311
CGGCACAC | 0.239
CATGATGG | -0.219
GGTAGCAA | -0.207
AGTTAGAC | -0.129
ATAGATCA | 0.0621

Sequence | PBM E-score
AGTCAGAA | -0.0999
CTGGCAAC | -0.0404
TATCTAGA | -0.247
ATTGTTGA | -0.0145
AAGTAGTG | -0.0433
ATAACACA | -0.0424
ATGCAAGC | -0.0447
CCGGATGC | 0.28
AAGGAGAA | -0.086
ATACTCTG | -0.0296
ATAGTTGA | -0.0828
ACCCAACA | -0.0419
CTTGATTC | 0.0867
ACGAAGAG | -0.128
AGAGCTAA | -0.231
ACGCTACT | 0.0666
ATTTATAA | 0.141
CAGGCAGC | -0.134
AGATCATC | 0.0153
ATCTAATC | 0.087
ACAGAAGG | -0.101
CTTGAGTA | -0.0589
CTAGTAAG | -0.125
GACCCGTA | -0.0759
CTGAGTGC | -0.138

Sequence | PBM E-score
CTACTAAA | -0.0977
CTTGGTTA | -0.0398
GCGGGCGA | 0.297
AAGTTTTG | 0.0311
CGAAACGA | -0.122
CAGTCGGA | 0.174
AGATCTAC | -0.128
ATAGATGC | -0.023
GTAAAGCA | 0.0229
ATAAATAC | 0.176
CCGGGCCA | 0.346
AGTTCGCC | 0.115
ATGTGGCA | -0.0762
AATGCTAG | -0.0917
CGGACGGC | 0.244
AAGCGATA | -0.189
AAGTAATG | 0.0905
GTCAATAA | -0.222
TATGATGA | -0.0562
ACCTTATG | -0.202
CGCTACAA | -0.121
CGGAGATC | 0.302
CAACTCTA | -0.0836
ATGTAGTG | -0.0998
GTTATAAA | -0.0728

Sequence | PBM E-score
CTCACAGA | -0.102
AGTTGCAG | -0.208
GTTAGTAA | -0.222
AAGACTTG | -0.23
AGTGGTGA | 0.0718
AGCCATAG | -0.18
CCGGACGC | 0.33
ACAAAACA | -0.0438
CCTTTACC | -0.145
CGATTGCG | 0.202
ACTTGATA | -0.0264
CTGCGCCC | -0.21
GAGCCATC | -0.174
CCACGAAA | -0.0437
CCCTCCCG | 0.187
CGACTCCG | 0.332
TGGGCAAA | -0.033
AAATAATC | -0.00849
ACGCGTTC | 0.0909
AAAGCGCA | -0.0202
CTAAAATA | -0.227
CTTCCCCC | -0.252
ATGCATAC | -0.182
CATGCCAA | -0.115
ATGAAAGA | -0.0862

Sequence | PBM E-score
AACTCCCG | 0.274
TTACTCAA | -0.0468
ACTCGGCC | 0.204
AGGCCACT | 0.00259
TCGCAGAA | -0.21
AATAGTCT | -0.249
TACCAAGA | -0.00658
ATGTCGGC | -0.0499
GCAGTTGA | -0.00471
CCCCAGCA | -0.0718
AACTGCCC | -0.0793
ACAGTTTC | 0.122
CCAAAACG | -0.134
TACACCAA | -0.151
CCACAGGA | -0.15
AAGAGCCC | -0.00683
AGTCCAAA | -0.165
ACTTCAAT | 0.147
ATTGTTGC | -0.0778
CTGGCGTC | -0.0815
CACCCGAC | 0.153
ATTCCCTA | 0.0152
CCTTTTCA | -0.118
AAGCGCCA | -0.354
ACGGAGTA | 0.297

Sequence | PBM E-score
AGACATTG | -0.16
TACTGAAA | 0.0701
GGCTAAGA | -0.0826
AACCAGTT | 0.033
AGCGCCGG | 0.307
CGTACACC | 0.0312
GCCCCGAC | 0.231
GGTTATGA | -0.146
AAGCTCCC | -0.056
GGTGATCA | -0.222
CAGGCTCA | -0.126
TATTATAA | -0.0981
AGATGTCA | 0.0102
ACGTACAC | -0.13
AAAGGGCT | -0.343
ACGCGCGT | 0.0776
AGCCTCGG | 0.156
ACTAATGC | 0.125
AAGAACTG | -0.101
ACGCCGTC | 0.191
TGTGGGAA | -0.119
CCGACCTC | 0.129
